# Test results: the supplement of paper PMC10037445
# In all, about 2,900 compounds were measured (“NF-kB SEAP reporter activity, fold change vs agonist alone”: median about 0.99, highest 2% from about 2.6 on). Some of the results follow.
# Tests used:
# [1] = test system: RAW-Dual; test: NF-kB SEAP reporter activity, fold change vs agonist alone; higher = enhanced NF-kB activity
# Outline: (§1)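 Reporter activity is given as fold change relative to agonist-alone wells. To measure it, 50 nL of library stock was pin-tooled onto RAW-Dual macrophages (50,000 cells/well, DMEM, 384-well plates), a PRR agonist followed 1 h later, and cells stayed at 37 °C, 5% CO2. Twenty hours on, supernatant was assayed for IRF (QuantiLuc luminescence) and NF-κB (QuantiBlue, 620 nm absorbance), and wells under 70% of agonist-control IncuCyte confluency in both mask sets were marked cytotoxic.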
# [2] = test system: RAW-Dual; test: NF-kB SEAP reporter activity, fold change vs agonist alone; cytotoxicity flag (confluency mask): not cytotoxic; higher = enhanced NF-kB activity
# Outline: as §1
# [3] = test system: RAW-Dual; test: NF-kB SEAP reporter activity, fold change vs agonist alone; cytotoxicity flag (confluency mask): cytotoxic (confluency <70% of control); higher = enhanced NF-kB activity
# Outline: as §1
# [4] = library stock concentration (final ~1000-fold dilution): 10 mM, cytotoxicity flag (confluency mask): not cytotoxic, agonist: Imiquimod (TLR7) […]
# [5] = library stock concentration (final ~1000-fold dilution): 10 mM, cytotoxicity flag (confluency mask): not cytotoxic, agonist: MPLA (TLR4) […]
# [6] = agonist: ODN 1826 (TLR9) 0.5 ug/mL
# [7] = agonist: Pam2CSK4 (TLR2/6) 0.1 ug/mL
# [8] = agonist: Pam3CSK4 (TLR2/1) 0.1 ug/mL
structure (smiles),measurement,setting,value
Cl.Cl.O=C(O)COCCN1CCN(C(c2ccccc2)c2ccc(Cl)cc2)CC1 (stereo unspecified),NF-kB SEAP reporter activity,[1]; [4],0.936
same,NF-kB SEAP reporter activity,[1]; [5],0.938
Cl.Cl.O=C(O)COCCN1CCN(C(c2ccccc2)c2ccc(Cl)cc2)CC1 (stereo unspecified) (library stock concentration (final ~1000-fold dilution): 10 mM),NF-kB SEAP reporter activity,[2]; agonist: LPS (TLR4) 0.1 ug/mL,1.28
same,NF-kB SEAP reporter activity,[2]; [6],0.984
same,NF-kB SEAP reporter activity,[2]; [7],1.04
same,NF-kB SEAP reporter activity,[2]; [8],0.961
OC(CC1c2ccccc2-c2cncn21)C1CCCCC1 (stereo unspecified),NF-kB SEAP reporter activity,[1]; [4],0.631
same,NF-kB SEAP reporter activity,[1]; [5],0.794
OC(CC1c2ccccc2-c2cncn21)C1CCCCC1 (stereo unspecified) (library stock concentration (final ~1000-fold dilution): 10 mM),NF-kB SEAP reporter activity,[2]; agonist: LPS (TLR4) 0.1 ug/mL,0.874
same,NF-kB SEAP reporter activity,[2]; [6],0.541
same,NF-kB SEAP reporter activity,[2]; [7],0.791
same,NF-kB SEAP reporter activity,[2]; [8],0.512
[O-][n+]1cccc(CO)c1,NF-kB SEAP reporter activity,[1]; [4],0.952
same,NF-kB SEAP reporter activity,[1]; [5],1.04
[O-][n+]1cccc(CO)c1 (library stock concentration (final ~1000-fold dilution): 10 mM),NF-kB SEAP reporter activity,[2]; agonist: LPS (TLR4) 0.1 ug/mL,0.952
same,NF-kB SEAP reporter activity,[2]; [6],1.03
same,NF-kB SEAP reporter activity,[2]; [7],1.09
same,NF-kB SEAP reporter activity,[2]; [8],1.08
CCC(=C(c1ccccc1)c1ccc(OCCN(C)C)cc1)c1ccccc1 (library stock concentration (final ~1000-fold dilution): 10 mM),NF-kB SEAP reporter activity,[3]; agonist: LPS (TLR4) 0.1 ug/mL,0.687
same,NF-kB SEAP reporter activity,[3]; [6],0.447
same,NF-kB SEAP reporter activity,[3]; [7],0.398
same,NF-kB SEAP reporter activity,[3]; [8],0.525
CCC(=C(c1ccccc1)c1ccc(OCCN(C)C)cc1)c1ccccc1,NF-kB SEAP reporter activity,"[1]; library stock concentration (final ~1000-fold dilution): 10 mM, cytotoxicity flag (confluency mask): cytotoxic (confluency <70% of control), agonist: Imiquimod (TLR7) […]",1.53
same,NF-kB SEAP reporter activity,"[1]; library stock concentration (final ~1000-fold dilution): 10 mM, cytotoxicity flag (confluency mask): cytotoxic (confluency <70% of control), agonist: MPLA (TLR4) […]",1.52
O=C1CCN(c2ccccc2)N1 (library stock concentration (final ~1000-fold dilution): 10 mM),NF-kB SEAP reporter activity,[2]; agonist: LPS (TLR4) 0.1 ug/mL,1.15
same,NF-kB SEAP reporter activity,[2]; [6],0.945
same,NF-kB SEAP reporter activity,[2]; [7],0.862
same,NF-kB SEAP reporter activity,[2]; [8],0.822
O=C1CCN(c2ccccc2)N1,NF-kB SEAP reporter activity,[1]; [4],0.984
same,NF-kB SEAP reporter activity,[1]; [5],1.13
COC(=O)Nc1ccc(-c2nc(N3CCOCC3)c3cnn(C4CCN(C(=O)OC)CC4)c3n2)cc1,NF-kB SEAP reporter activity,[1]; [4],0.976
same,NF-kB SEAP reporter activity,[1]; [5],0.895
COC(=O)Nc1ccc(-c2nc(N3CCOCC3)c3cnn(C4CCN(C(=O)OC)CC4)c3n2)cc1 (library stock concentration (final ~1000-fold dilution): 10 mM),NF-kB SEAP reporter activity,[2]; agonist: LPS (TLR4) 0.1 ug/mL,0.888
same,NF-kB SEAP reporter activity,[2]; [6],0.912
same,NF-kB SEAP reporter activity,[2]; [7],0.867
same,NF-kB SEAP reporter activity,[2]; [8],0.873
CS(=O)(=O)CCNCc1ccc(-c2ccc3ncnc(Nc4ccc(OCc5cccc(F)c5)c(Cl)c4)c3c2)o1.Cc1ccc(S(=O)(=O)O)cc1.Cc1ccc(S(=O)(=O)O)cc1 (library stock concentration (final ~1000-fold dilution): 10 mM),NF-kB SEAP reporter activity,[2]; agonist: LPS (TLR4) 0.1 ug/mL,4.16
same,NF-kB SEAP reporter activity,[2]; [6],0.272
same,NF-kB SEAP reporter activity,[2]; [7],0.851
same,NF-kB SEAP reporter activity,[2]; [8],1.14
CS(=O)(=O)CCNCc1ccc(-c2ccc3ncnc(Nc4ccc(OCc5cccc(F)c5)c(Cl)c4)c3c2)o1.Cc1ccc(S(=O)(=O)O)cc1.Cc1ccc(S(=O)(=O)O)cc1,NF-kB SEAP reporter activity,[1]; [4],1.68
same,NF-kB SEAP reporter activity,[1]; [5],1.56
Nc1ccc(S(=O)(=O)Nc2cnc3ccccc3n2)cc1 (library stock concentration (final ~1000-fold dilution): 10 mM water),NF-kB SEAP reporter activity,[2]; agonist: LPS (TLR4) 0.1 ug/mL,1.29
same,NF-kB SEAP reporter activity,[2]; [6],1.14
same,NF-kB SEAP reporter activity,[2]; [7],1.22
same,NF-kB SEAP reporter activity,[2]; [8],1.07
Nc1ccc(S(=O)(=O)Nc2cnc3ccccc3n2)cc1,NF-kB SEAP reporter activity,"[1]; library stock concentration (final ~1000-fold dilution): 10 mM water, cytotoxicity flag (confluency mask): not cytotoxic, agonist: MPLA (TLR4) […]",1.02
O=C1C(CCS(=O)c2ccccc2)C(=O)N(c2ccccc2)N1c1ccccc1 (stereo unspecified) (library stock concentration (final ~1000-fold dilution): 10 mM),NF-kB SEAP reporter activity,[2]; agonist: LPS (TLR4) 0.1 ug/mL,1.16
same,NF-kB SEAP reporter activity,[2]; [6],0.919
same,NF-kB SEAP reporter activity,[2]; [7],1.25
same,NF-kB SEAP reporter activity,[2]; [8],0.905
